# From the supplement of paper PMC11417369
# ± gives the standard deviation of the averaged measurements. This is one part of the list.
# Test system: PfAP2-EXP AP2 domain (GST-tagged)
# Assay: gcPBM binding intensity (ln(normalized median fluorescence intensity)); higher = stronger DNA binding
# Outline: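 In this array assay, P. falciparum DNA-binding domains with a GST tag, expressed in E. coli, were applied for 1 h to primer-extended double-stranded 36-bp intergenic genomic probes and negative controls on an Agilent 4 × 180k array. Bound protein was visualised with Alexa488 anti-GST antibody at 488 nm. Binding intensity is the highest Masliner-normalised natural-log median intensity across replicate spots of either probe orientation.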
row,Sequence,gcPBM binding intensity (ln)
1,TATGTGAATAAATAAGCACACATAAACACATATATA [CACACA_site9359],8.82 ± 0.44
2,AACACATAATAAAATTGTACCCAACATTTCTTTTGA [XGTACX_site8061],8.31 ± 0.41
3,ATAAAAATTTAAAAAGAACACACGAAAGAAGGACTT [CACACA_site3929],8.95 ± 0.49
4,GTGAGCTCAGACTACACACACAAAGAAAAAAATAAA [CACACA_site1553],8.67 ± 0.51
5,ATATTTTTAGGTGATTATTATTCGGAGAAGCGAATT [CACACA_negctrl_site1097],8.29 ± 0.47
6,AATACCTACCAAACATGTACATACGCTTCTCAAATA [XGTACX_site5535],8.88 ± 0.39
7,TATATAAACACGTACACACACATATCTGTATTTATA [CACACA_site5858],8.88 ± 0.2
8,ATACAACAAAAATAAGCACACACAAATATACATACA [CACACA_site9201],8.82 ± 0.41
9,AACAAATACAGACACACACACACACCCAAAAAAAAA [CACACA_site515],8.51 ± 0.52
10,TCCATATTTGTTCACACACACACATATTTATATATA [CACACA_site3570],8.84 ± 0.42
11,ATTAAATGTTATATTTGTACATATTATATATATATA [XGTACX_site5095],9.62 ± 0.37
12,TTCATTTTTTATTATAGTACACATAATATTTGCAGA [XGTACX_site4032],8.55 ± 0.27
13,TTTGTTATTTTTTATTGTACTTTTTTTCTTTCATAA [XGTACX_site4302],8.85 ± 0.43
14,TTTTTTAAATGTATTAAAATTATATATATATATATA [GTGCAC_negctrl_site570],10.2 ± 0.25
15,AATCAAAACAACAATAGTACATAAAAAAACAAAACA [XGTACX_site4181],8.77 ± 0.49
16,ATACATAAATTTAGAAGTACATAACAAATTTTTAAA [XGTACX_site7448],8.55 ± 0.33
17,AAAAAAAAAAAAAACACACACACAAATACAAATGGT [CACACA_site1721],8.79 ± 0.56
18,TTTCTTATTTTGGATTGTACGTATATTTTTCATTTT [XGTACX_site224],8.93 ± 0.38
19,TCCTATATATAAATATTAATATATATGTATTGGTAT [GTGCAC_negctrl_site23],8.29 ± 0.41
20,TATAATAATAATTATACATGCATGAATATTTATATG [TGCATGCA_site811],8.86 ± 0.16
21,ATGGACAAGTTAAACGCACACAAATATATACACCCA [CACACA_site8478],8.91 ± 0.36
22,AATAAAAAAAATAGCATACACACATATATACATATA [CACACA_site659],8.45 ± 0.25

row,Sequence,gcPBM binding intensity (ln)
1,AACAAAAAAAAAAAAAAAAAAAAAAAAAAAAAAATG [CACACA_negctrl_site1127],7.91 ± 0.51
2,TTACACATGAGAAAATGTACATATAATAAAATATGT [XGTACX_site904],8.62 ± 0.33
3,TTATATTTCAATCATATTGTCACAAGTCATATTTAT [GTGCAC_negctrl_site366],8.24 ± 0.23
4,TATATATATATGTGCGTGCACGTTACCTTGCTGTTT,10.1 ± 0.24
5,AAATTTAACAACTTCAAACACACAATATATATATAT [CACACA_site2092],9.87 ± 0.18
6,TTTCCAAATACAACTACACACAAACAAAAGTTATAT [CACACA_site6544],8.7 ± 0.5
7,TTAAATATAATTATATGTACATATTTATGTATATAT [XGTACX_site5811],8.26 ± 0.27
8,AGATTGTATTTATGTACACACATTTTTGGAATATGA [CACACA_site1340],8.98 ± 0.5
9,TTGATTAAAATTAGTACACACAAAATACATGCGGGG [CACACA_site5284],9.2 ± 0.3
10,ATATTATAATGTTTTTACGAATTCGCAAATTATTAT [GTGCAC_negctrl_site470],8.64 ± 0.51
11,TTTTTTTTTTTTTTTTTTTTTTTTTTATGATATATA [GTGCAC_negctrl_site365],7.74 ± 0.14
12,AATTTACAAAAAAGAAAAAAAAAAAAAAAGATACTT [CACACA_negctrl_site1434],8.19 ± 0.47
13,ATATGCACTCATTGTGCACACGCATATTACGAAAAG [CACACA_site2637],9.125 ± 0.064
14,TTAATTATCCATTTTGCACACATTTTAAAACATGAA [CACACA_site189],8.9 ± 0.46
15,AAAAAATTATTAATTTGTACATAAATAACCAAAAAA [XGTACX_site2488],8.43 ± 0.28
16,TAATTTATTACCATGTAATTATTACGAATATAGGAT [CACACA_negctrl_site694],8.48 ± 0.44
17,TATATATTAAAATAATCACACACATCAATTAATGGT [CACACA_site8331],8.38 ± 0.42
18,TTCAACGTTTTGGAATGTACAGAAAGGTATCCATCA [XGTACX_site179],8.53 ± 0.47
19,GAAATATAATTTATTACACACATTTTAAAAAAATTC [CACACA_site1087],8.11 ± 0.28
20,AAAAAAAAAAAAAAAAAAAAAAAAAAAAAATATGTG [GTGCAC_negctrl_site657],9.195 ± 0.064
21,TAAAAGATAAAATATGCATGTGTAATTTTTTTTTTT [TGCATGCA_site955],8.43 ± 0.32
22,TTTATAACATTTAAGAGTACAAAAAAATAAATAAAT [XGTACX_site1264],8.7 ± 0.46
